Patent US7592316B2, “Peptides as NS3-serine protease inhibitors of hepatitis C virus” (Schering Corporation, priority 2000, dated 2009)

molecular target: HCV NS3/NS4A protease (strain 1a) (Hepatitis C virus genotype 1a, UniProt P27958); experiment: biochemical; details: Compounds prepared by Solid Phase Synthesis, Table 3; read-out: Ki* CLASS

Row | Structure (SMILES) | Ki [nM]
1 | CCCCC(NC(=O)CNC(=O)C(=O)C(CCC)NC(=O)[C@@H]1C[C@@H](OCC(=O)OC(C)(C)C)CN1C(=O)C(NC(=O)Cc1ccc(F)cc1)C1CCCCC1)C(N)=O (stereo partly shown) ({Phenylacetyl(4-F)}-[ξChg][Hyp](CH2CO2tBu)[X2]G[ξNle]-NH2) | > 1000
2 | CCCCC(NC(=O)CNC(=O)C(=O)C(CCC)NC(=O)[C@@H]1C[C@@H](OCC(=O)O)CN1C(=O)C(NC(=O)Cc1ccc(C)cc1)C1CCCCC1)C(N)=O (stereo partly shown) ({Phenylacetyl(4-Me)}-[ξChg][Hyp](Carboxymethyl)[X2]G[ξNle]-NH2) | > 1000
3 | CCCCC(NC(=O)CNC(=O)C(=O)C(CCC)NC(=O)[C@@H]1C[C@@H](OCc2ccccc2)CN1C(=O)C(NC(=O)CC(c1ccccc1)c1ccccc1)C1CCCCC1)C(N)=O (stereo partly shown) ({Propanoyl(3,3-Ph2)}-[ξChg][Hyp](Bn)[X2]G[ξNle]-NH2) | > 1000

same assay, conditions: HCV protease continuous assay results, Table 1; read-out: Ki* Range

Row | Structure (SMILES) | Ki [nM]
4 | C=CCOC(=O)CNC(=O)C(=O)[C@H](CCC)NC(=O)[C@@H]1C[C@@H](OCC(=O)OC(C)(C)C)CN1C(=O)OCC1c2ccccc2-c2ccccc21 [Example 1] | > 1000
5 | C=CCOC(=O)CNC(=O)C(=O)C(CCC)NC(=O)[C@@H]1CCCN1C(=O)c1ccc(N2CCN(C(=O)OC(C)(C)C)CC2)cc1 (stereo partly shown) [Example 2] | > 1000
6 | C=CCOC(=O)CNC(=O)C(=O)C(CCC)NC(=O)[C@@H]1CCCN1C(=O)c1ccc(N2CCN(C(=O)[C@H](CCC(=O)OC(C)(C)C)NC(C)=O)CC2)cc1 (stereo partly shown) [Example 3] | > 1000
7 | C=CCOC(=O)CNC(=O)C(=O)C(CCC)NC(=O)[C@@H]1CCCN1C(=O)c1ccc(N2CCNCC2)cc1 (stereo partly shown) [Example 4] | > 1000
8 | C=CCOC(=O)CNC(=O)C(=O)C(CCC)NC(=O)[C@@H]1CCCN1C(=O)c1ccc(N2CCN(C(=O)[C@H](CCC(=O)O)NC(C)=O)CC2)cc1 (stereo partly shown) [Example 5] | > 1000
9 | C=CCOC(=O)CNC(=O)C(=O)C(CCC)NC(=O)[C@@H]1CCCN1C(=O)c1ccc(N2CCN(C(=O)c3ccccc3)CC2)cc1 (stereo partly shown) [Example 6] | > 1000
10 | C=CCNC(=O)C(=O)[C@H](CCC)NC(=O)[C@@H]1CCCN1C(=O)OC(C)(C)C [Example 7] | > 1000
11 | CCCOC(=O)CNC(=O)C(=O)C(CCC)NC(=O)[C@@H]1CCCN1C(=O)[C@@H](NC(=O)OCC(C)C)C(C)C (stereo partly shown) [Example 8] | > 1000
12 | CCCC(NC(=O)[C@@H]1CCCN1C(=O)[C@@H](NC(=O)OCC(C)C)C(C)C)C(=O)C(=O)NCC(=O)O (stereo partly shown) [Example 9] | > 1000
13 | C=CCOC(=O)CNC(=O)C(=O)C(CCC)NC(=O)[C@@H]1C[C@@H](OC(C)(C)C)CN1C(=O)OCC1c2ccccc2-c2ccccc21 (stereo partly shown) [Example 10] | > 1000
14 | CCCC(NC(=O)[C@@H]1CCCN1C(=O)[C@@H](NC(=O)OCC(C)C)C(C)C)C(=O)C(=O)NCC(=O)N[C@@H](CC(=O)OC)C(=O)OC (stereo partly shown) [Example 11] (Isobutyloxycarbonyl-VP[X2]GD(OMe)-OMe) | > 1000
15 | CCCC(NC(=O)[C@@H]1CCCN1C(=O)[C@@H](NC(=O)OCC(C)C)C(C)C)C(=O)C(=O)NCC(=O)N[C@@H](CCC(=O)OCC)C(=O)OCC (stereo partly shown) [Example 13] (Isobutyloxycarbonyl-VP[X2]GE(OEt)-OEt) | > 1000
16 | CCCC(NC(=O)[C@@H]1CCCN1C(=O)[C@@H](NC(=O)OCC(C)C)C(C)C)C(=O)C(=O)NCC(=O)N1CCCCC1C(=O)OCC (stereo partly shown) [Example 14] (Isobutyloxycarbonyl-VP[X2]G[ξPip]-OEt) | > 1000

same assay, conditions: Table 5; HCV NS3/NS4A protease, spectrophotometric assay, 30° C., pH 6.5; read-out: Ki* Range

Row | Structure (SMILES) | Ki [nM]
17 | CCCC(NC(=O)[C@@H]1[C@@H]2[C@H](CN1C(=O)[C@@H](NC(=O)Nc1ccc(C#N)cc1)C(C)(C)C)C2(C)C)C(=O)C(=O)NCC(=O)N[C@H](C(=O)N(C)C)c1ccccc1 (stereo partly drawn) ({X57-CO}-[Tle][Pro(3R,4S-CMe2)][X2]G[Phg]-NMe2) | 101 to 1000

same assay, conditions: Table 6; HCV NS3/NS4A protease, 30° C., pH 6.5; read-out: Ki*

Row | Structure (SMILES) | Ki [nM]
18 | CN(C)C(=O)C(NC(=O)CNC(=O)C(=O)C(CC1CC1)NC(=O)[C@@H]1[C@@H]2[C@H](CN1C(=O)[C@@H](NC(=O)NC1(C)CCCCC1)C(C)(C)C)C2(C)C)c1ccccc1 (stereo partly drawn) ({X88-CO}-[Tle][Pro(3R,4S-CMe2)][X8]G[ξPhg]-NMe2) | 1 to 100
19 | CN(C)C(=O)[C@@H](NC(=O)CNC(=O)C(=O)C(CC1CC1)NC(=O)[C@@H]1[C@@H]2[C@H](CN1C(=O)[C@@H](NC(=O)N(C)C(C)(C)C)C(C)(C)C)C2(C)C)c1ccccc1 (stereo partly drawn) ({X106-CO}-[Tle][Pro(3R,4S-CMe2)][X8]G[Phg]-NMe2) | 1 to 100

*1 amine or outer side, *2 acyl side, *3 side chain or, on linkers, in order; H or OH if unused. Where a SMILES comes first, the peptide text is derived from it. [ ]: non-standard residue; d: D form. The star is where a group is joined. ξ: configuration not given here. Pro(3R,4S-CMe2) = CC1(C)[C@@H]2[C@@H](C(=O)O)NC[C@@H]21; Propanoyl(3,3-Ph2) = O=C(CC(c1ccccc1)c1ccccc1)*; Phenylacetyl(4-Me) = Cc1ccc(CC(=O)*)cc1; Phenylacetyl(4-F) = O=C(Cc1ccc(F)cc1)*; Isobutyloxycarbonyl = CC(C)COC(=O)*; X8 = O=C(C(=O)[*:2])C(CC1CC1)N[*:1]; Hyp = O=C(O)[C@@H]1C[C@@H](O)CN1; X2 = CCCC(N[*:1])C(=O)C(=O)[*:2]; CH2CO2tBu = CC(C)(C)OC(=O)C*; Phg = N[C@H](C(=O)O)c1ccccc1; Tle = CC(C)(C)[C@H](N)C(=O)O; ξChg = NC(C(=O)O)C1CCCCC1; ξPhg = NC(C(=O)O)c1ccccc1; Carboxymethyl = O=C(O)C*; X57 = N#Cc1ccc(N*)cc1; ξNle = CCCCC(N)C(=O)O; ξPip = O=C(O)C1CCCCN1; CO = O=C([*:1])[*:2]; X106 = CN(C(C)(C)C)*; X88 = CC1(N*)CCCCC1; Bn = c1ccc(C*)cc1
